Test results reported in PubChem BioAssay AID686978 (National Center for Advancing Translational Sciences (NCATS), 2013).
“And” between values parts separate entries of the source, which are not always exact repeats. Identical values can stand only once. Hit rate of the full screen: of about 420,000 compounds, about 64,000 (15%) were called active. Inconclusive results, whose numbers are uncertain, are shown with a selection of clear calls. Calls follow the shape of the dose curve; as a rule, active = well fitted inhibition curve with a large enough effect; inconclusive = small, poorly fitted or top-dose-only effect; inactive = flat fitted curve, though single readings scatter. Potencies beside an inconclusive call are fits to weak or partial responses and may not hold up.

Assay: qHTS for Inhibitors of human tyrosyl-DNA phosphodiesterase 1 (TDP1): qHTS in cells in absence of CPT; also: nearly all actives have a fitted effect of over 55% in size
Settings: DT40 Tdp1-/- hTDP1 cells, no CPT, ATP luminescence, 48 h; activity change, negative = growth inhibition: at 46.2 µM (top of the series) unless noted
In short: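 A cellular qHTS used chicken DT40 cells lacking endogenous Tdp1 but carrying stably transfected human TDP1. Compounds were applied without camptothecin, and cell growth kinetics were judged by ATP-dependent luminescence after ≥48 hr.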
% is scaled to controls: 0 for no effect and ±100 for the full control effect; potency is read from the fitted curve at half-maximal effect; tags tell the direction and shape of the fitted curve.

**Q.** Which Potency does the source give for `CN(C)C(=S)Oc1ccccc1-c1ccccc1OC(=S)N(C)C` here?
**A.** The Potency was inconclusive: 20.6 µM [inhibitor, single point].

**Q.** Which Potency does the source give for `CC(C)C[C@H]1CN=C(Nc2ccccc2)N1CCc1cccc(F)c1` here?
**A.** The Potency was inconclusive: 18.4 µM [inhibitor, single point].

**Q.** With `COc1ccccc1CNC(=O)CN(Cc1ccc(Cl)cc1)S(C)(=O)=O` as the compound, how does the Potency read?
**A.** The Potency was inconclusive: 23.1 µM [inhibitor, partial curve].

**Q.** For `COc1cc(Br)cc(CNc2ccc(F)c([N+](=O)[O-])c2)c1O`, which Potency is on record?
**A.** Its Potency is inconclusive: 29.1 µM [inhibitor, single point].

**Q.** For `COc1cc(OC)c(OC)cc1CNC(=O)c1cc(S(=O)(=O)N(C)c2ccccc2OC)ccc1C`, which Potency is on record?
**A.** The Potency was inconclusive: 23.1 µM [inhibitor, partial curve].

**Q.** For `O=c1ccn(-c2cccc(C(F)(F)F)c2)nc1-c1ccn(-c2ccccc2F)n1`, which Potency is on record?
**A.** The Potency was inconclusive: 29.1 µM [inhibitor, single point].

**Q.** Which Potency does the source give for `O=C(CCc1c[nH]c2ccccc12)NC1CC1` here?
**A.** The Potency was “inactive”.

**Q.** With `O=C(NC(=S)Nc1ccccc1Br)C1CCC1` as the compound, how does the Potency read?
**A.** The Potency was “inactive”.

**Q.** Which Potency does the source give for `N=c1c2c(n(Cc3cccc(Cl)c3)c3c1CCC3)CCCC2` here?
**A.** Its Potency is active: 1.84 µM.

**Q.** Which Potency does the source give for `Cc1ccc(NC(=O)CSc2ncccn2)cc1S(=O)(=O)N1CCOCC1` here?
**A.** The Potency was “inactive”.

**Q.** Which Potency does the source give for `N#Cc1ccc(CNc2cnccn2)cc1` here?
**A.** The Potency was “inactive”.

**Q.** With `Cc1cc(C)cc(NC(=O)CCC(=O)N2CCSc3ccccc32)c1` as the compound, how does the Potency read?
**A.** The Potency was active: 18.4 µM.

**Q.** For `Cc1ccc(C=C2SC(=S)N(CCCC(=O)Nc3cccc(C(=O)O)c3)C2=O)cc1`, which Potency is on record?
**A.** The Potency was “inactive”.

**Q.** For `Cc1nn(-c2ccccc2)c(C)c1C(=O)OCC(=O)NC(=O)NC1CCCCC1`, which Potency is on record?
**A.** The Potency was active: 29.1 µM.

**Q.** Which Potency does the source give for `CCCCN(CC)C(=O)c1cc2c(=O)n3cccc(C)c3nc2s1` here?
**A.** The Potency was inconclusive: 23.1 µM [inhibitor, single point] and inconclusive: 29.1 µM [inhibitor, single point].

**Q.** For `CN(C)c1ccc(C(=O)N(Cc2ccccc2)Cc2ccccc2)cc1`, which Potency is on record?
**A.** Its Potency is inconclusive: 18.4 µM [inhibitor, single point].

**Q.** For `NS(=O)(=O)c1cccc(NC(=O)CSc2nc3ccccc3c(=O)n2Cc2ccco2)c1`, which Potency is on record?
**A.** The Potency was inconclusive: 14.6 µM [inhibitor, single point].

**Q.** Which Potency does the source give for `O=C(CCCOc1ccccc1)N1CCN(S(=O)(=O)c2cccc(F)c2)CC1` here?
**A.** Its Potency is inconclusive: 29.1 µM [inhibitor, single point].

**Q.** Which Potency does the source give for `COc1ccc(-c2csc(C(C)(O)c3ccccc3)n2)cc1` (stereo not given) here?
**A.** Its Potency is inconclusive: 23.1 µM [inhibitor, single point].

**Q.** Which Potency does the source give for `COc1cc(Cl)c(C)cc1NC(=O)c1cnc(N2CCOCC2)c2ccccc12` here?
**A.** Its Potency is active: 9.2 µM.

**Q.** With `O=C(c1ccc2nc3ccccc3c(=O)n2c1)N1CCN(Cc2ccc3c(c2)OCO3)CC1` as the compound, how does the Potency read?
**A.** Its Potency is inconclusive: 29.1 µM [inhibitor, single point].

**Q.** Which activity change, negative = growth inhibition does the source give for `CCOC(=O)c1ccc(NC(=O)CSC2=NC(=O)C(CC)C(=O)N2)cc1` (stereo not given) here?
**A.** The activity change, negative = growth inhibition was inconclusive: -6.55% [inhibitor].

**Q.** For `CCN(C(=O)c1cc(S(=O)(=O)N2CCc3ccccc32)cn1C)c1ccccc1`, which Potency is on record?
**A.** The Potency was inconclusive: 29.1 µM [inhibitor, single point].

**Q.** For `c1ccc2c(c1)CC1(CCCC1)n1nnnc1-2`, which Potency is on record?
**A.** Its Potency is “inactive”.

**Q.** For `CCOc1ccc(S(=O)(=O)N(C)c2ccc(OCC(=O)NCCc3ccc(OC)cc3)cc2)cc1`, which Potency is on record?
**A.** The Potency was active: 23.1 µM.

**Q.** With `Cc1nc(N2CCCCC2)nc(N2CCCCC2)c1C=O` as the compound, how does the Potency read?
**A.** Its Potency is inconclusive: 25.9 µM [inhibitor, single point].

**Q.** With `O=C(Nc1ccc(Br)cc1)c1cccnc1N1CCCCC1` as the compound, how does the Potency read?
**A.** The Potency was inconclusive: 11.6 µM [inhibitor, partial curve].

**Q.** For `CCCCn1c(SCc2nc(N)nc(N3CCCCC3)n2)nc2c1c(=O)n(C)c(=O)n2C`, which Potency is on record?
**A.** The Potency was inconclusive: 13 µM [inhibitor, partial curve, poor fit].

**Q.** Which Potency does the source give for `CC(=O)Nc1ccc(S(=O)(=O)N(C)CC(=O)OCC(=O)N2CC(C)OC(C)C2)cc1` (stereo not given) here?
**A.** Its Potency is “inactive”.

**Q.** For `O=C(Nc1ccc(F)c(Cl)c1)C1CC2CCC1C2` (stereo not given), which Potency is on record?
**A.** Its Potency is inconclusive: 29.1 µM [inhibitor, single point].

**Q.** With `Cc1ccc(CNC(=O)CS(=O)Cc2nc(-c3ccccc3C)oc2C)cc1` (stereo not given) as the compound, how does the Potency read?
**A.** The Potency was inconclusive: 14.6 µM [inhibitor, partial curve].

**Q.** Which Potency does the source give for `CCn1cc(S(=O)(=O)CC(=O)Nc2cc(C)on2)c2ccccc21` here?
**A.** The Potency was inconclusive: 11.6 µM [inhibitor, partial curve].

**Q.** With `COc1ccc(Cn2c(=O)sc3ccccc3c2=O)cc1` as the compound, how does the Potency read?
**A.** Its Potency is “inactive”.

**Q.** Which Potency does the source give for `Cc1ccccc1NC(=O)c1cc(S(=O)(=O)N2CCOCC2)cs1` here?
**A.** The Potency was “inactive”.

**Q.** For `Cc1ccc(Nc2ccc(N3CCN(C(=O)c4ccc([N+](=O)[O-])cc4)CC3)nn2)cc1`, which Potency is on record?
**A.** Its Potency is active: 23.1 µM.

**Q.** Which Potency does the source give for `Cc1cc(C(c2nnnn2Cc2ccccc2)N2CCOCC2)c(C)n1-c1ccc2c(c1)OCO2` (stereo not given) here?
**A.** The Potency was active: 16.4 µM.

**Q.** With `Cc1ccc(C)c(NS(=O)(=O)c2cc3c4c(c2)C(C)C(=O)N4CCC3)c1` (stereo not given) as the compound, how does the Potency read?
**A.** The Potency was inconclusive: 29.1 µM [inhibitor, single point].

**Q.** With `COc1ccc(-c2cc3nc(NCC4CCCCC4)n(C)c(=O)c3s2)cc1OC` as the compound, how does the Potency read?
**A.** The Potency was inconclusive: 29.1 µM [inhibitor, single point].

**Q.** For `COC(=O)c1c(NC(=O)c2ccco2)sc(C(=O)Nc2ccc(F)cc2)c1C`, which Potency is on record?
**A.** Its Potency is active: 23.1 µM.

**Q.** With `Cc1nnsc1NC(=O)OCc1ccc(Cl)cc1Cl` as the compound, how does the Potency read?
**A.** The Potency was inconclusive: 11.6 µM [inhibitor, partial curve, poor fit].

**Q.** For `COc1ccccc1NS(=O)(=O)c1cc(C(=O)N2CCCCCC2)ccc1C`, which Potency is on record?
**A.** Its Potency is inconclusive: 23.1 µM [inhibitor, single point].

**Q.** Which Potency does the source give for `O=c1[nH]c(=S)[nH]c2c1[C@H](CCc1cccc(Cl)c1)O[C@H](C1CC1)C2` here?
**A.** The Potency was “inactive”.

**Q.** With `O=C(CSc1n[nH]c(=O)n1C1CC1)Nc1ccccc1` as the compound, how does the Potency read?
**A.** The Potency was “inactive”.

**Q.** Which Potency does the source give for `O=C(Oc1ccccc1C(=O)Nc1ccccc1)c1ccc(Br)c([N+](=O)[O-])c1` here?
**A.** The Potency was inconclusive: 14.6 µM [inhibitor, partial curve].

**Q.** Which Potency does the source give for `CCCCN(C=O)c1c(CC)nc2ccc(C(=O)N3CCN(c4ccccc4)CC3)cn12` here?
**A.** The Potency was inconclusive: 18.4 µM [inhibitor, single point].
